Measurements from the supplement of paper PMC5655136.
These are enrichments in a pooled selection; single values are uncertain.
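Also: shRNA barcodes quantified by deep sequencing of PCR amplicons from cellular DNA, counts expressed as percent of each subpool, ratio averaged over two biological duplicates.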

These sequences were tested on NB7 (assay: fold depletion of shRNA, plasmid library share / infected cells without Dox share (9 days) (ratio); higher = more depleted after infection (more toxic, leaky expression from a Tet-inducible vector; NB7 is a neuroblastoma line without caspase-8)). Conditions: shRNA pool: CD95 ORF + CD95 3'UTR + Venus libraries.
For TCACCGGGGTGGTGCCCATCC, the “fold depletion of shRNA” value was 1.55. TCACTCTCGGCATGGACGAGC was tested, and the “fold depletion of shRNA” value was 1.19. TCAGAAAATTCAAACTTCAGA was tested, and the “fold depletion of shRNA” value was 0.812. In the case of TCAGAAATGAAATCCAAAGCT, the “fold depletion of shRNA” value is reported as 1.17. For TCAGAACTTGGAAGGCCTGCA, the “fold depletion of shRNA” value was 1.32. TCAGACTATCATCCTCAAGGA was tested, and the “fold depletion of shRNA” value was 1.97. With TCAGAGAAAGTAGCTTTGTGA the “fold depletion of shRNA” value was 1.47. In the case of TCAGCGTGTCCGGCGAGGGCG, the “fold depletion of shRNA” value is reported as 0.366. In the case of TCAGGCATCAAAAGCATTTTG, the “fold depletion of shRNA” value is reported as 0.833. For TCAGTGTATGTTAGTACAAAT, the “fold depletion of shRNA” value was 0.874. With TCAGTTCTGAGTATATGCAAT the “fold depletion of shRNA” value was 0.926. With TCATACCCCCAAGTTTCTAAG the “fold depletion of shRNA” value was 1.98. With TCATATTATACAATATTTCAA the “fold depletion of shRNA” value was 1.12. With TCATATTTATGTAAAGTATAT the “fold depletion of shRNA” value was 0.708. In the case of TCATCAAGAGTAAATGCAGTG, the “fold depletion of shRNA” value is reported as 0.906. For TCATCCTCAAGGACATTACTA, the “fold depletion of shRNA” value was 2.02. For TCATGAACCCATGTTTGCAAT, the “fold depletion of shRNA” value was 6.17. In the case of TCATGAATCTCCAACTTTAAA, the “fold depletion of shRNA” value is reported as 0.976. In the case of TCATGACACTAAGTCAAGTTA, the “fold depletion of shRNA” value is reported as 0.619. TCATGATGGCCAATTCTGCCA was tested, and the “fold depletion of shRNA” value was 1. For TCATGGAAAGAAAGAAGCGTA, the “fold depletion of shRNA” value was 0.81. With TCATTTATTAGCGCTGAAGAG the “fold depletion of shRNA” value was 0.842. For TCCAAAAGTGTTAATGCCCAA, the “fold depletion of shRNA” value was 2.21. In the case of TCCAAATGCAGAAGATGTAGA, the “fold depletion of shRNA” value is reported as 1.08. For TCCAACTTTAAATCCTGAAAC, the “fold depletion of shRNA” value was 0.659. In the case of TCCAAGACACAGCAGAACAGA, the “fold depletion of shRNA” value is reported as 1.1. TCCAAGGATGTTTAAAATCTA was tested, and the “fold depletion of shRNA” value was 0.522. With TCCAAGGGATTGGAATTGAGG the “fold depletion of shRNA” value was 2.71. TCCACTAATTGTTTGGGTGAA was tested, and the “fold depletion of shRNA” value was 0.89. TCCAGATCTAACTTGGGGTGG was tested, and the “fold depletion of shRNA” value was 0.628. With TCCAGGAGCGCACCATCTTCT the “fold depletion of shRNA” value was 1.1. TCCAGGTGAAAGGAAAGCTAG was tested, and the “fold depletion of shRNA” value was 3.02. With TCCATTTATGGAGGATTTTTT the “fold depletion of shRNA” value was 1.05. TCCCATGTAAAACCTGCTACA was tested, and the “fold depletion of shRNA” value was 1.25. For TCCCCCACCCCCGAAAATGTT, the “fold depletion of shRNA” value was 3.49. In the case of TCCGCCACAACATCGAGGACG, the “fold depletion of shRNA” value is reported as 0.797. For TCCGCCATGCCCGAAGGCTAC, the “fold depletion of shRNA” value was 1.74. In the case of TCCGCCCTGAGCAAAGACCCC, the “fold depletion of shRNA” value is reported as 0.971. TCCGGCGAGGGCGAGGGCGAT was tested, and the “fold depletion of shRNA” value was 1.11. For TCCTACCTCTGGTTCTTACGT, the “fold depletion of shRNA” value was 2.29. In the case of TCCTACGTTTAAATATCTTTG, the “fold depletion of shRNA” value is reported as 0.95. For TCCTCAAGGACATTACTAGTG, the “fold depletion of shRNA” value was 1.35. TCCTCCAGGTGAAAGGAAAGC was tested, and the “fold depletion of shRNA” value was 1.09. For TCCTGAAACAGTGGCAATAAA, the “fold depletion of shRNA” value was 0.87. With TCCTGCTGGAGTTCGTGACCG the “fold depletion of shRNA” value was 0.77. For TCCTGGGGCACAAGCTGGAGT, the “fold depletion of shRNA” value was 1.16. In the case of TCCTGGTCGAGCTGGACGGCG, the “fold depletion of shRNA” value is reported as 1.04. With TCCTTACTACTATCCTACGTT the “fold depletion of shRNA” value was 0.789. In the case of TCGAAAGAATGGTGTCAATGA, the “fold depletion of shRNA” value is reported as 1.52. In the case of TCGACTTCAAGGAGGACGGCA, the “fold depletion of shRNA” value is reported as 1.04. For TCGAGCTGAAGGGCATCGACT, the “fold depletion of shRNA” value was 0.819. In the case of TCGAGCTGGACGGCGACGTAA, the “fold depletion of shRNA” value is reported as 1.72. In the case of TCGAGGACGGCGGCGTGCAGC, the “fold depletion of shRNA” value is reported as 0.26. With TCGAGGGCGACACCCTGGTGA the “fold depletion of shRNA” value was 1.31. TCGCCCGCTACCCCGACCACA was tested, and the “fold depletion of shRNA” value was 0.809. For TCGCCGACCACTACCAGCAGA, the “fold depletion of shRNA” value was 1.32. In the case of TCGGCATGGACGAGCTGTACA, the “fold depletion of shRNA” value is reported as 1.91. With TCGGCGACGGCCCCGTGCTGC the “fold depletion of shRNA” value was 0.531. For TCGTAATTGGCATCAACTTCA, the “fold depletion of shRNA” value was 1.83. With TCGTGACCACCCTGGGCTACG the “fold depletion of shRNA” value was 0.686. In the case of TCGTGACCGCCGCCGGGATCA, the “fold depletion of shRNA” value is reported as 0.743. For TCTAAACTTTGTTTATAACTC, the “fold depletion of shRNA” value was 1.43. TCTAAATTACCTCTGATAATT was tested, and the “fold depletion of shRNA” value was 0.795. For TCTAACATATGATTCTGTAGT, the “fold depletion of shRNA” value was 0.923. For TCTAAGATTTAAGATTCTCCT, the “fold depletion of shRNA” value was 1.17. For TCTACCTCAAAGACCTTTGCA, the “fold depletion of shRNA” value was 14.5. For TCTACTGTATGTGAACACTGT, the “fold depletion of shRNA” value was 1.99. For TCTAGAGATTTTACCATATTT, the “fold depletion of shRNA” value was 0.784. With TCTAGTTGGGAAAACAAACTT the “fold depletion of shRNA” value was 1.65. For TCTATATCACCGCCGACAAGC, the “fold depletion of shRNA” value was 0.966. In the case of TCTATGAATCAATAGAAGAAG, the “fold depletion of shRNA” value is reported as 0.882. In the case of TCTCAAAAAAGCCAATCTTTG, the “fold depletion of shRNA” value is reported as 1.74. With TCTCAGAGAAAGTAGCTTTGT the “fold depletion of shRNA” value was 1.42. In the case of TCTCAGGCATCAAAAGCATTT, the “fold depletion of shRNA” value is reported as 5.83. For TCTCATGAATCTCCAACTTTA, the “fold depletion of shRNA” value was 0.71. In the case of TCTCCAACTTTAAATCCTGAA, the “fold depletion of shRNA” value is reported as 0.685. For TCTCCTTACTACTATCCTACG, the “fold depletion of shRNA” value was 0.621. With TCTCGGCATGGACGAGCTGTA the “fold depletion of shRNA” value was 1.28. With TCTGAGAAGATCATATTTATG the “fold depletion of shRNA” value was 0.756. TCTGAGTATATGCAATTAGTG was tested, and the “fold depletion of shRNA” value was 1.46. TCTGATAATTCTAGAGATTTT was tested, and the “fold depletion of shRNA” value was 0.618. For TCTGATGTTGACTTGAGTAAA, the “fold depletion of shRNA” value was 1.05. With TCTGCACCACCGGCAAGCTGC the “fold depletion of shRNA” value was 0.906. With TCTGCCATAAGCCCTGTCCTC the “fold depletion of shRNA” value was 0.917. For TCTGCCTCCAAGGATGTTTAA, the “fold depletion of shRNA” value was 0.271. TCTGGACCCTCCTACCTCTGG was tested, and the “fold depletion of shRNA” value was 0.923.
